Data: patent US20120100139A1 (APTEVO RESEARCH AND DEVELOPMENT, published 2012)

What was measured:
[1] = molecular target: T1, PD1 ectodomain fused to a C-terminal AviTag, biotinylated (biotinylated on the AviTag with the BirA enzyme); assay: SPR (BIAcore T100), biotinylated PD1 captured on neutravidin; steady-state equilibrium fit
T1 construct: also called biotinylated PD1
T1 chain: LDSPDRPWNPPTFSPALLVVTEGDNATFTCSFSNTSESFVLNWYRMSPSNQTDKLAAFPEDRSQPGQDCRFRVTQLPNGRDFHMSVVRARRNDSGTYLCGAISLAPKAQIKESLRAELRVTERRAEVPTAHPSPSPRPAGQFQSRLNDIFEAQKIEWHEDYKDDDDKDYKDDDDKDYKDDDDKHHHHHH
Experimental: (§1) SPR measurements were performed on a BIAcore™ T100 SPR (Pharmacia Biotech AB, Uppsala) using HBS-P+ (GE Healthcare) as a running buffer. […] PDL1/2-containing constructs were injected for 120 seconds, at a flow rate of 30 μl/min, in a series of concentrations from 6 nM to 2 μM. Dissociation was monitored for 1200 seconds, and the surface was regenerated by injecting 50 mM NaOH, 1M NaCl for 30 seconds.
(§2) Data were analyzed using BiaEvaluation for the T100 software (version 2.0.1, GE Healthcare).

[2] = molecular target: T1, PD1 ectodomain fused to a C-terminal …; assay: SPR (BIAcore T100), biotinylated PD1 captured on neutravidin; bivalent analyte model, first site
Experimental: as §1, §2

B1: PDL1-Fc (Fc fusion)
chain: not shown
Kd [1]: 246 nM
koff [2]: 0.0544 s⁻¹
kon [2]: 96000 M⁻¹ s⁻¹
